Experimental data from a collection of fitness landscapes (doi:10.1038/s41467-024-54723-y).
The full ranking holds about 18,000 sequences; the median of “TetR repression strength (sort-seq, GFP reporter)” is about 0.23, and the highest 2% start at about 0.68. Some of the results follow.

target: TetR (class B, Tn10) (UniProt P04483); assay: TetR repression strength (sort-seq, GFP reporter) (relative to tetO2 = 1); higher = stronger repression; details: E. coli
Outline: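 Repression strength is the top bin index plus one minus the read-weighted mean bin, relative to the unaltered operator's value. A low-copy library in E. coli SIG10-MAX randomized eight operator positions between a constitutive promoter and sfGFP, with TetR expressed constitutively; cells grew 5 h at 37 °C in LB with 50 µg/mL chloramphenicol and 10^6 were FACS-sorted into 13 bins that were each Illumina-sequenced. Three independent transformations were averaged, keeping only members with ≥30 reads in all replicates and CV ≤0.5.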

Sequence of UniProt P04483 (P04483 whole entry): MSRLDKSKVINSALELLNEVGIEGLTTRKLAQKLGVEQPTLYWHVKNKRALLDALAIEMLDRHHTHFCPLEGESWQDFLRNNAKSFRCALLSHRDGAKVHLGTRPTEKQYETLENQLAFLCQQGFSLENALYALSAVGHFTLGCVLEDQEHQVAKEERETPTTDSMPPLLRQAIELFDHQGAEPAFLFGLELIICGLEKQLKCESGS

Sequence | TetR repression strength
TCCCAGGCAGTACGTGAGA | 0.295
TCCCGACTAGTTGGAGAGA | 0.263
TCCCGGGTAGTCGACGAGA | 0.142
TCCCGAGAAGTATGGGAGA | 0.16
TCCCAAGTAGTTTTGGAGA | 0.261
TCCCTGTGAGTGGTGGAGA | 0.256
TCCCGTTCAGTAATGGAGA | 0.409
TCCCCATAAGTAACGGAGA | 0.122
TCCCCTAAAGTGCAGGAGA | 0.106
TCCCTATGAGTTTGGGAGA | 0.0296
TCCCGAGTAGTCACTGAGA | 0.231
TCCCGTGTAGTGCTCGAGA | 0.212
TCCCCACTAGTATGGGAGA | 0.262
TCCCGTTCAGTCGCCGAGA | 0.0928
TCCCCACTAGTCCGGGAGA | 0.255
TCCCTGATAGTTTAAGAGA | 0.119
TCCCAGCCAGTCAGAGAGA | 0.296
TCCCTGTCAGTGTGTGAGA | 0.198
TCCCACTTAGTCGGGGAGA | 0.428
TCCCATAAAGTATAGGAGA | 0.128
TCCCAATTAGTAGAGGAGA | 0.26
TCCCGGGAAGTGCCAGAGA | 0.215
TCCCAGAGAGTGGACGAGA | 0.418
TCCCTGCGAGTGTTCGAGA | 0.201
TCCCTAGCAGTGGAGGAGA | 0.218
TCCCGCGCAGTCTAAGAGA | 0.281

Sequence | TetR repression strength
TCCCGGTGAGTTTCGGAGA | 0.14
TCCCGGTCAGTGGAAGAGA | 0.458
TCCCATGGAGTGTCGGAGA | 0.279
TCCCAGTTAGTGAACGAGA | 0.238
TCCCCGTGAGTTTTGGAGA | 0.159
TCCCGTGCAGTGAGAGAGA | 0.236
TCCCATTAAGTGGTGGAGA | 0.179
TCCCGGAGAGTAGCAGAGA | 0.313
TCCCTCTGAGTGTTCGAGA | 0.158
TCCCGAATAGTTTGGGAGA | 0.192
TCCCCCACAGTGTGAGAGA | 0.205
TCCCGTTTAGTAGGTGAGA | 0.0471
TCCCCGCGAGTTAGGGAGA | 0.421
TCCCTGCGAGTCCTTGAGA | 0.143
TCCCTGTCAGTTAGAGAGA | 0.36
TCCCGTGGAGTCGGAGAGA | 0.359
TCCCCTGGAGTTGGTGAGA | 0.24
TCCCGGGCAGTTACTGAGA | 0.37
TCCCGGGCAGTCCAGGAGA | 0.153
TCCCCTGGAGTCTAGGAGA | 0.246
TCCCATGCAGTTCGGGAGA | 0.178
TCCCGAACAGTTTGGGAGA | 0.157
TCCCCATAAGTTGCCGAGA | 0.0972
TCCCTTTCAGTGACTGAGA | 0.435
TCCCTGGAAGTCTTAGAGA | 0.0949
TCCCGTGTAGTGCTAGAGA | 0.274

Sequence | TetR repression strength
TCCCGTAGAGTTAATGAGA | 0.0993
TCCCGAACAGTACGGGAGA | 0.293
TCCCAATAAGTGTAGGAGA | 0.346
TCCCGGTGAGTACAAGAGA | 0.254
TCCCGGCCAGTCTGCGAGA | 0.967
TCCCGGGTAGTTCTTGAGA | 0
TCCCGTACAGTCGTAGAGA | 0.23
TCCCGAGAAGTCATTGAGA | 0.23
TCCCTCTAAGTGCCAGAGA | 0.286
TCCCGGTTAGTTGGCGAGA | 0.223
TCCCCCTGAGTTTATGAGA | 0.265
TCCCGAAGAGTGTGCGAGA | 0.0738
TCCCTATAAGTGCCTGAGA | 0.162
TCCCCGACAGTCTCTGAGA | 0.23
TCCCGTTAAGTCCTGGAGA | 0.287
TCCCCCGGAGTGATGGAGA | 0.136
TCCCCAACAGTACACGAGA | 0.297
TCCCCGGGAGTGAGTGAGA | 0.157
TCCCGTTCAGTTCAAGAGA | 0.202
TCCCGCAAAGTTGTAGAGA | 0.171
TCCCGCGAAGTAAACGAGA | 0.157
TCCCAGACAGTGGACGAGA | 0.24
TCCCGTAGAGTCACCGAGA | 0.0526
TCCCCTTCAGTTGTCGAGA | 0.528
TCCCACGAAGTTAGGGAGA | 0.155
TCCCTAAGAGTCAGTGAGA | 0.304

Sequence | TetR repression strength
TCCCTTTGAGTATGCGAGA | 0.127
TCCCGTCGAGTCTCTGAGA | 0.232
TCCCCATAAGTGTGTGAGA | 0.11
TCCCTGTGAGTGCGCGAGA | 0.132
TCCCCAAAAGTTGGGGAGA | 0.218
TCCCTTGAAGTAATCGAGA | 0
TCCCCAGCAGTATACGAGA | 0.286
TCCCAACGAGTCAGTGAGA | 0.23
TCCCTCGCAGTCAGTGAGA | 0.251
TCCCGGTAAGTGGTTGAGA | 0.266
TCCCGGTAAGTACAAGAGA | 0.413
TCCCGCTCAGTGCAGGAGA | 0.0948
TCCCTCGTAGTGGGAGAGA | 0.261
TCCCAAAGAGTTGGTGAGA | 0.104
TCCCGGAGAGTATTAGAGA | 0.18
TCCCTTTTAGTTCGAGAGA | 0
TCCCCTTAAGTAGTCGAGA | 0.148
TCCCAACTAGTGCATGAGA | 0.468
TCCCTTTCAGTATAAGAGA | 0.224
TCCCACGTAGTGGGGGAGA | 0.213
TCCCGTCTAGTGTCCGAGA | 0.375
TCCCGCACAGTCTGTGAGA | 0.149
TCCCTACGAGTTGGGGAGA | 0.114
TCCCCTGAAGTACTGGAGA | 0.0389
